# Measured values as given in the supplement of paper PMC3334620.
# In all, about 33,000 sequences were measured (“E-score (-0.5 to 0.5)”: median about -0.043, highest 2% from about 0.37 on). This is one part of the list.
# Target: T1, Upc2 (UniProt Q12151)
# T1 sequence: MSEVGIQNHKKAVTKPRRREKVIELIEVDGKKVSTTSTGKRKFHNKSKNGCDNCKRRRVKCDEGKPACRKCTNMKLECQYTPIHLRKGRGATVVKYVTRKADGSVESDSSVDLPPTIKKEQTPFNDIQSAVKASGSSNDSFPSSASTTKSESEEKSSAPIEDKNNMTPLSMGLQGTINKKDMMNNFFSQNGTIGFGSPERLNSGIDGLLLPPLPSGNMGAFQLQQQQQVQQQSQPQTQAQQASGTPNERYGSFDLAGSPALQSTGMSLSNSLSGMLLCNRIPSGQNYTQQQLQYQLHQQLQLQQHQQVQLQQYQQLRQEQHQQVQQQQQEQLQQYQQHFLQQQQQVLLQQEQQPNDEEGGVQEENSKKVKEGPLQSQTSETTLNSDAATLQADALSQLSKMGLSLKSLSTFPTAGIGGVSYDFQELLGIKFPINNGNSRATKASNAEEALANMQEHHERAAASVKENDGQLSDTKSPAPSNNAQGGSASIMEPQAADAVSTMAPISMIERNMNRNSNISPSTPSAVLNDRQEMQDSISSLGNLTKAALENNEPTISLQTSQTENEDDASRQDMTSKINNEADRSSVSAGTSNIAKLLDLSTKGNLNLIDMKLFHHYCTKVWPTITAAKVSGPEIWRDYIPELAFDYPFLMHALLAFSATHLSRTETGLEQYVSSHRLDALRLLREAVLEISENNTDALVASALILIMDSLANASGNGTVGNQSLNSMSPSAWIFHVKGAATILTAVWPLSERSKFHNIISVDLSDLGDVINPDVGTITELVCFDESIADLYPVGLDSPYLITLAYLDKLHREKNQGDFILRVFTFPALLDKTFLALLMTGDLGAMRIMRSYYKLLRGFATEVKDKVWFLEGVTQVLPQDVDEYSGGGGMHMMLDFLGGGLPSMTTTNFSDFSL
# Assay: PBM E-score (8-mer binding enrichment) (E-score (-0.5 to 0.5)); higher = stronger / more preferred TF binding; most listed sequences are background and not binding sites
# Conditions: protein concentration: 200 nM; construct: GST-full length
# Method in brief: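 Yeast transcription factors carrying a GST tag, as full-length proteins or DNA-binding domains, were produced by PURExpress in vitro transcription/translation. About 100-200 nM protein was applied to universal all-10-mer Agilent arrays, double-stranded by primer extension on fresh or once-stripped slides. Bound protein was detected with fluorescent anti-GST, and scans were normalised with masliner. The Universal PBM Analysis Suite gave each ungapped eight-base word, pooled with its reverse complement, an E-score, a modified Wilcoxon-Mann-Whitney statistic.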
row,Sequence,PBM E-score
1,CCCCGGAG,-0.119
2,GTCTGCCA,0.0242
3,ACGAAACA,0.339
4,ACTGGCCA,-0.215
5,GTCTCCGA,-0.143
6,AAATTAAA,0.00919
7,AATCTGCC,-0.133
8,GCATCAGA,-0.062
9,GTACCCTA,0.109
10,AACGTCTT,0.131
11,CGCTGACG,-0.0837
12,TATGTGCA,-0.0906
13,TATAAACA,0.0845
14,AGACGCAC,0.0365
15,CCTCGCCA,-0.158
16,GGCGGCTA,-0.263
17,AGATCCTA,-0.104
18,ACCCACGC,-0.061
19,CACCTTGA,-0.135
20,TTCGAGAA,0.109
21,CCACGTGG,0.13
22,AACACGGG,0.12
23,GGGTCATA,-0.127
24,ACAAATCC,-0.0208
25,CCGTAAGC,0.161

row,Sequence,PBM E-score
1,GTGGTCGA,0.00299
2,ATAGACTA,-0.0191
3,CCCACTAC,-0.0157
4,CATCTACA,-0.109
5,AAGCAAGT,-0.192
6,ATCCAAGC,-0.232
7,GACTGGCC,0.0218
8,CCACGTGC,-0.0054
9,GCATCAAA,-0.107
10,AAGACTAC,-0.033
11,TAACGGCA,0.034
12,AACCTGCG,-0.0137
13,ACTCTTAA,0.033
14,ACTCATGC,-0.0732
15,ACACTCAC,-0.0895
16,CCGAGTCG,0.0842
17,AAGTGGTG,-0.0138
18,CAGCCAAA,-0.0153
19,CGCTTTCC,-0.089
20,CGTTTAGC,0.48
21,AAATTGAG,-0.17
22,ATTAGCGG,-0.156
23,CATAAACA,-0.00956
24,ACAGGTCT,0.0427
25,GTGGAAAC,-0.106

row,Sequence,PBM E-score
1,GAGTACAC,0.134
2,CTAGGTTA,-0.111
3,AATGCACA,0.039
4,AGCTAATA,0.0852
5,CATCGGAA,0.0847
6,AACCCTTG,-0.0385
7,ATCAGGCG,-0.135
8,ATAACCGC,-0.0475
9,CTTTAGTC,-0.278
10,ATGCCGCG,0.178
11,GAGGTAGA,-0.0305
12,CGAATGCC,-0.0362
13,CCTCATCG,0.0474
14,ATCGAGGG,-0.0211
15,ACTACTGG,-0.349
16,CTGTCAGC,-0.268
17,CGCAACCC,-0.0865
18,CTAGACTA,-0.0801
19,CTTAAACA,0.11
20,CTAGGGGC,-0.369
21,GCCAGTAC,0.00188
22,GACTGGAC,-0.215
23,ATGACCAC,-0.197
24,GATTCAAC,-0.0403
25,GTGCGGAA,-0.0536

row,Sequence,PBM E-score
1,GGACCATA,-0.0389
2,AATTCCGC,0.0411
3,AAAAGCAT,0.0838
4,ACGCATTC,0.0368
5,CACAGATA,-0.136
6,AGGGACAC,-0.0645
7,GGGGCTTA,-0.215
8,CAGTCTGC,-0.0954
9,AAACACCG,0.137
10,ACGATAGC,0.339
11,AGCGACGC,0.218
12,ACTTTAGA,-0.117
13,ACTTCACG,0.0222
14,GCGGCTCC,-0.169
15,AGCACCCG,-0.0525
16,CCGTGGCA,-0.0847
17,CGCTTAGC,0.287
18,ACGAATAT,0.252
19,GACAGCGA,0.0312
20,GGATCACC,0.00235
21,CTTAATTC,0.0228
22,GGTTATTA,0.0965
23,ATCACCCA,-0.149
24,GTACGACA,0.468
25,GGAATCCC,-0.186

row,Sequence,PBM E-score
1,ACCTATTG,-0.0668
2,CAACGTGC,-0.0738
3,ATATAGCG,0.0128
4,CTCCGTCC,-0.304
5,AGCACCAT,-0.0618
6,AGCTCTAT,-0.126
7,AGGTAAAC,0.331
8,CGTGCAAG,0.13
9,GAATCCAC,-0.0337
10,CATATCCG,0.0703
11,CGCCTTAG,-0.169
12,CTCCACTC,-0.208
13,AACGCCCA,0.0627
14,CAGAAACC,-0.097
15,CACAGGGA,-0.233
16,CGTTCGGA,0.265
17,AGCTGTCA,-0.0571
18,AACGGCTC,0.216
19,ACGCGTGA,0.136
20,ACTGTGGC,-0.123
21,CGTGCGTC,0.102
22,CATTCACC,-0.0198
23,CAAGGCTG,-0.22
24,GGCAGTCA,-0.16
25,AACGTACA,0.266

row,Sequence,PBM E-score
1,GGTAACTA,0.0556
2,CGGCCGGC,-0.0294
3,CCTAAAAG,0.0297
4,CAGGAAAG,-0.216
5,AACGGAGA,0.205
6,ATATCGCG,0.239
7,CCTAGCCC,-0.172
8,AAAGATGT,0.0298
9,GAGGAGCC,-0.164
10,CGTTGATC,0.17
11,CACAGGCA,-0.155
12,CGCGTGAG,-0.0011
13,AGCGAGCT,0.225
14,AGGTTCAC,0.0568
15,AAACTACT,0.0197
16,GACCGGTA,0.00038
17,CAATCTAA,0.00274
18,AGTGTATA,0.211
19,GAGTTCGC,-0.079
20,ACTCCAGG,-0.104
21,GCTAGTAA,-0.105
22,GCAAGAGC,-0.186
23,CACATCCG,-0.0107
24,GAATCCCC,-0.222
25,ACTCAGTC,-0.097

row,Sequence,PBM E-score
1,GCCAGTCA,-0.158
2,CGATGACG,0.0815
3,CCGATCTC,-0.136
4,CGGTACAG,0.12
5,AAGGACCT,-0.0968
6,CGGTTAAG,0.282
7,AGTGAATC,-0.166
8,CTCTCGAC,-0.195
9,GCGATTCA,0.11
10,AGCTGATC,-0.0688
11,AGCATAAT,0.0553
12,GCCCTCTA,-0.147
13,AAAACATG,0.115
14,CAGTTACA,-0.0631
15,ACGCTCAG,0.0359
16,GCAGGGCA,-0.146
17,AATTAGAC,-0.0806
18,ATGACTAG,-0.097
19,AGGAGCGA,0.222
20,ATTGGTCA,-0.18
21,ATCCGGCA,-0.198
22,CGACGGGA,0.228
